Data set [1] deals with Patients with mild to moderate hypertension. The experiment in a line: Test for confirming the effect of acetic acid on hypertensive patient (double blind, placebo, Example 10). To be noted: about 0.75 g or 1.5 g of acetic acid per day for at least 4 weeks. Format: in vivo, human.
Data set [2] concerns SHR/Hos rats.
Data set [3] concerns SHR rats. To be noted: 0.3% in feed, 8 weeks, 1 rat per sample.
Data set [4] relates to gastric mucosa. To be noted: in vivo; cited from earlier work.
The conditions of data set [5]: pig, in vivo, po.
Data set [6] relates to spontaneous hypertensive rats (SHR/NCrj). How it is done:
These feeds were employed as samples.
As test animals, 6 spontaneous hypertensive rats (SPF, SHR/NCrj, male, 4-week-old, Charles River Japan) were prepared for each group to which each sample was to be administered (the group to which the test meal was to be administered and the control group). Rats were allowed to freely ingest feeds and tap water.
The day on which the test meal had been first administered was determined to be the day 1, and administration was continued for 8 weeks.
They were kept at a temperature of 20° C. to 26° C. and a humidity of 40% to 70% and placed in a well-lit place for 12 hours a day and in a dark place for 12 hours a day.
The blood pressure and the heart rate were noninvasively measured every week. The blood pressure was measured using an apparatus for noninvasive blood pressure measurement by the tail-cuff method. The heart rate was measured by employing the pulse of the blood pressure as a trigger. Measurements were carried out 5 times, and the mean thereof was determined.

The mark [7] stands for this setting: feed with 3% of 5% acetic acid solution, t-test.

Results on one molecule are retold here after patent publication US20050256195A1, “Composition for preventing hypertension” (priority 2002, published 2005).

Like-named read-outs stand apart in the source and are kept apart here.

Consider `CC(=O)O` [acetic acid], for which the “blood pressure level of a patient with mild to moderate hypertension” value in data set [1] was “significantly lower the blood pressure level”. In addition, in data set [2], the “acetic acid (molecules) in feeds needed to inhibit the elevation of blood pressure” value is given as ≥ 0.36 g per 1,000 g of feeds, the “content of 5% acetic acid solution in feeds needed to inhibit the elevation of blood pressure” value is ≥ 0.72% and the “period of continual ingestion needed for lower blood pressure than control” value is listed as “at least 3 weeks”. In data set [2] (0.36% to 9%, ANOVA), the “body weights, comparison among groups” value is listed as “no significant difference among groups” and the “feed consumption, comparison among groups” value is given as “no significant difference among groups”. Also, the “blood pressure level versus control group” value in data set [2] (feeds comprising 0.36% acetic acid (5% solution)) is listed as “not significantly different from that of the control group at any stage”. Also, the “blood pressure level versus control group” value in data set [2] (feeds comprising 0.72% acetic acid (5% solution), ANOVA p<0.05) was “became significantly lower than that of the control group on the 5th week”. In addition, in data set [2] (feeds comprising 1.5% acetic acid (5% solution), ANOVA p<0.05), the “blood pressure level versus control group” value is on record as “became significantly lower than that of the control group on the 4th week”. In data set [2] (feeds comprising 3% to 9% acetic acid (5% solution), ANOVA p<0.05), the “blood pressure level versus control group” value is reported as “became significantly lower than that of the control group on the 3rd week”. Further, the “effect on elevation of blood pressure” value in data set [3] was “has the effect of alleviating the elevation of blood pressure in SHR”. Besides, in data set [4], the “acetic acid concentration that exhibits the effect of protecting the gastric mucosa rather than damaging the stomach” value is “up to 3%”. Also, in data set [5], the “time after ingestion at which concentration returns to a level substantially the same as under fasting conditions” value came out at 30 min. For the same molecule, the “body weight versus control group” value in data set [6] (feed with 3% of 5% (w/v) acetic acid solution, 8 weeks later, t-test) is given as “no significant difference”. Also, the “heart rate versus control group” value in data set [6] (feed with 3% of 5% acetic acid solution, 8 weeks) is given as “did not become significantly different from that of the control group at any stage”. Further, the “blood pressure level versus control group” value in data set [6] (feed with 3% of 5% acetic acid solution, 8 weeks, tail-cuff, p<0.05) is recorded as “significantly lower than that of the control group from the 4th week to the 8th week”. Moreover, in data set [6] (setting [7]), the “feed consumption versus control group” value is listed as “no significant difference” and the “water consumption versus control group” value is “no significant difference”.
